# According to PubChem BioAssay AID2107 (National Center for Advancing Translational Sciences (NCATS), 2009):
# Among all 240,000 compounds or so, about 20 (0.008%) were called active. Inconclusive results, whose numbers are uncertain, are shown with a selection of clear calls. Calls come from the whole dose curve; as a rule, active = well fitted inhibition curve with a large enough effect; inconclusive = small, poorly fitted or top-dose-only effect, or effect the other way; inactive = flat fitted curve, though single readings scatter. No potency is given beside an inconclusive call; the fits are too rough.
# Target: Alpha-galactosidase A (Homo sapiens) (UniProt P06280)
# Sequence of UniProt P06280 (P06280 whole entry, looked up): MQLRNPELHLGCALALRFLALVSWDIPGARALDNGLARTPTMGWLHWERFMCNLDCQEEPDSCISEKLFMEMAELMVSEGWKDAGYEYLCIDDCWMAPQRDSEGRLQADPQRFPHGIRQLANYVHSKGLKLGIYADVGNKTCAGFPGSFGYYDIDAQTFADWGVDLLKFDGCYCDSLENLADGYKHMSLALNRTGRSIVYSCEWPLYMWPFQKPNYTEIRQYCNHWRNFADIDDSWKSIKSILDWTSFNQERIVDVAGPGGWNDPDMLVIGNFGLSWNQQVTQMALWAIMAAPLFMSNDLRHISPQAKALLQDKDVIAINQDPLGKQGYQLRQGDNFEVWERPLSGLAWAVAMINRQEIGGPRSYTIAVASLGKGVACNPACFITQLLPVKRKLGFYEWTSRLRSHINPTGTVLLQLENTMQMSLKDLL
# Experiment: qHTS Assay for Inhibitors and Activators of Human alpha-Galactosidase From Spleen Homogenate
# Conditions: 4MU-alpha-Gal fluorescence, 40 min; series mostly up to 80 µM
# Excerpt: NIH Chemical Genomics Center [NCGC] NIH Molecular Libraries Probe Production Centers Network [MLPCN] MLPCN Grant: R03 MH084842-01 Assay Submitter (PI): Wei Zheng NCGC Assay Overview: Alpha-galactosidase is a homodimeric glycoprotein that hydrolyzes the terminal alpha-galactosyl moieties from glycolipids and glycoproteins. Deficiency of this enzyme results in Fabry Disease with progressive accumulation of globotriaosylceramide and other glycosphingolipids in vascular endothelial cells that causes renal failure, myocardial infarction and stroke, and premature death in patients. It has been reported that the improper folding and trafficking of alpha-galactosidase resulting from genetic mutations may account for a significant number of Fabry patients. […] We optimized this alpha-galactosidase assay in 1536-well plate format for identification of novel small molecule inhibitors or activators with structures other than the sugar analogs in order to develop new pharmacological chaperones. In particular, this assay is directed towards discovering compounds active in more natural setting, tissue homogenate, that may have been missed by screens of the purified enzyme under more stringent conditions.
# NCGC Assay Protocol Summary: This is a fluorogenic enzyme assay with 4-methylumbelliferyl-alpha-D-galactopyranoside as the substrate and human spleen homogenate containing alpha-galactosidase as the enzyme preparation. Upon hydrolysis of this fluorogenic substrate, the resulting product, 4-methylumbelliferone (which excites at 365 nm and emits at 440 nm) can be detected by a fluorescence plate reader. Data were normalized to the controls for basal activity (without enzyme) and 100% activity (with enzyme). The AC50 values were determined from concentration-response data modeled with the standard Hill equation. Assay buffer: 50 mM citric acid (titrated with potassium phosphate to pH 5.0), 0.01% Tween-20 (pH 5.0 is an optimal condition for this enzyme assay) 1536-well assay protocol for the alpha-galactosidase from human spleen homogenate: (1) Add 2 ul/well spleen homogenate (1 ug) (2) Add 23 nL compounds in DMSO solution. The final titration was 0.5 nM to 58 uM. (3) Add 2 ul of substrate (1 mM final) (4) Incubate at 37C for 40 min (5) Add 2 ul stop solution (1M NaOH and 1M Glycine mixture, pH 10) (6) Detect the assay plate in a ViewLux plate reader (PerkinElmer) with Ex=365 nm and Em=440nm. Keywords: Alpha-galactosidase, Fabry Disease, pharmacological chaperone, chaperone therapy, high throughput screening, alpha- galactosidase inhibitor, MLSMR, MLSCN, NIH Roadmap, qHTS and NCGC
# Potency is the fitted concentration of half-maximal effect; tags give direction and shape of the fitted curve.
row,Structure (SMILES),Potency
1,O=C(Nc1ccccc1N1CCCCC1)c1ccccc1F,"inconclusive [inhibitor, partial curve]"
2,CN(C(=O)Nc1ccc(Cl)c(Cl)c1)c1ccccc1C(=O)O,"inconclusive [activator, single point]"
3,Cc1cc(C)n(C/C=C/Cn2nc(C)cc2C)n1,"inconclusive [inhibitor, single point]"
4,COC1=Cc2c(ccc3ccc(=O)oc23)OC1(C)C,"inconclusive [activator, single point]"
5,Oc1ccc(N=Cc2ccc(-c3cccs3)s2)cc1,"inconclusive [activator, single point]"
6,Cc1ccc(CCc2nnc(SCC(=O)Nc3cc(Cl)ccc3Cl)n2-c2ccccc2)o1,inactive
7,Cc1c2c(n3c(nc4ccccc43)c1C#N)N(CCCN(C)C)CC2,"inconclusive [activator, partial curve]"
8,Cc1cccn2c(=O)c3cc(C(=O)NCc4ccco4)c(=N)n(C(C)C)c3nc12,"inconclusive [activator, partial curve]"
9,c1ccc(-c2nc3nc4ccccc4nc3n2CC2CCCO2)cc1 (centres undefined),"inconclusive [activator, full curve]"
10,O=C(c1ccco1)N1CCN(C(=O)C(Cc2ccccc2)NS(=O)(=O)c2cccs2)CC1 (centres undefined),"inconclusive [activator, single point]"
11,Cc1ccc(NC(=O)CCNS(=O)(=O)c2cccc3nonc23)cc1,"inconclusive [inhibitor, single point]"
12,CCn1cc(SCC(=O)N2CCc3ccccc32)c2ccccc21,"inconclusive [inhibitor, single point]"
13,CC(C)Cn1c(/C=C/c2ccccc2)nc2ccccc21,"inconclusive [activator, partial curve, poor fit]"
14,COc1ccccc1N1CCN(C(=O)c2coc(=O)c(Br)c2)CC1,"inconclusive [activator, single point]"
15,CCCCn1c(=NC(=O)c2ccco2)c(C(=O)OCC)cc2c(=O)n3cccc(C)c3nc21,"inconclusive [activator, single point]"
16,Cc1ccc(S(=O)(=O)Nc2ccc(-c3nc4ccc(C)cc4s3)cc2)cc1,"inconclusive [activator, partial curve]"
17,COc1ccc(-c2cc(C(=O)NCC3CCCO3)c3cc(C)ccc3n2)cc1 (centres undefined),"inconclusive [activator, single point]"
18,OC1CCN(c2cc(-c3ccccc3)nc3cc(-c4ccc(F)cc4)nn23)CC1,"inconclusive [activator, single point]"
19,O=C(Nc1ccccc1)N1CCCc2ccccc21,inactive
20,CCOc1ccccc1C1C(C(=O)OC)=CN(C)C=C1C(=O)OC,"inconclusive [activator, partial curve]"
21,Cc1cc(CNC(=O)c2cccc([N+](=O)[O-])c2)c2ccccc2n1,"inconclusive [inhibitor, single point]"
22,CCOc1cc(NC2CS(=O)(=O)CC2O)c(OCC)cc1NC(=O)c1ccccc1 (centres undefined),inactive

row,Structure (SMILES),Potency
1,C=CC[C@](C)(O)c1ccccc1,inactive
2,Cc1cc(C)c2c(n1)nn1c(NCCCn3ccnc3)cc(C)nc21,"inconclusive [activator, partial curve]"
3,Cc1cc2n(n1)C(c1ccc(N(C)C)cc1)Nc1ccccc1-2 (centres undefined),"inconclusive [activator, partial curve]"
4,O=C(CCl)N=c1sccn1Cc1ccccc1Cl,inactive
5,NCCCC[C@H]1CNC(=O)C(=O)N1CC1CCCCC1,"inconclusive [inhibitor, partial curve]"
6,O=C(O)Cc1c[nH]c2ccc(O)cc12,"inconclusive [inhibitor, partial curve]"
7,N#CC1(C#N)C(c2ccccc2)OC23CCCCC2C1(C#N)C(=N)O3 (centres undefined),"inconclusive [activator, single point]"
8,CCc1nnc(NS(=O)(=O)c2ccc(N=Cc3c(C)[nH]n(-c4cccc(Cl)c4)c3=O)cc2)s1,inactive
9,O=C(Nc1ccccc1C(=O)N/N=C/c1ccc(F)cc1)c1ccccc1Br,inactive
10,O=C(CSc1nnc(-c2cccs2)o1)N1CCCCC1,inactive
11,COc1ccc(CC2C(=O)OC(C)(C)OC2=O)cc1,"inconclusive [activator, single point]"
12,O=C(NCCN1CCOCC1)c1cc2c(=O)n3ccccc3nc2n1Cc1ccccc1,"inconclusive [activator, partial curve, poor fit]"
13,CCN(CC)C(=O)c1cc2c(=O)n3ccccc3nc2s1,"inconclusive [activator, partial curve]"
14,O=C(NC(c1ccc(Cl)cc1)c1cc(Cl)c2cccnc2c1O)c1cccnc1 (centres undefined),inactive
15,CC(C)(C)n1nnnc1C(c1cccc(C#N)c1)N1CCC(Cc2ccccc2)CC1 (centres undefined),"inconclusive [inhibitor, partial curve]"
16,CCOc1c2ccc(C(=O)NCCCCc3ccccc3)cc2nn1CC,"inconclusive [inhibitor, single point]"
17,CCOC(=O)C1=C(c2ccccc2)NC(=O)NC1c1cc(Cl)c(O)c(OC)c1 (centres undefined),inactive
18,COc1cccc(Cn2c(=O)c(C)nc3cnc(N(C)C)nc32)c1,"inconclusive [activator, single point]"
19,Cc1cc(=O)oc2cc(Oc3ccc([N+](=O)[O-])cc3[N+](=O)[O-])ccc12,"inconclusive [activator, partial curve]"
20,COc1ccc(-c2cn3cccnc3n2)cc1,"inconclusive [activator, partial curve]"
21,COc1ccc(NC(=O)/C(C#N)=C\c2cc(C)n(-c3ccc(Oc4ccc([N+](=O)[O-])cn4)cc3)c2C)cc1,inactive
22,CCN(C(=O)CSc1nc2cc(Cl)ccc2c(=O)n1Cc1ccco1)C1CCS(=O)(=O)C1 (centres undefined),inactive
